Like-named read-outs stand apart in the source and are kept apart here.
Tests used:
CDK4/CycD1 = CDK4/CycD1 (Homo sapiens, UniProt P11802); experiment: CDK family single point inhibition assay; assay type: biochemical; settings: Km ATP
STAT5 S726 and Y694 = experiment: STAT phosphorylation in SET-2 cells (JAK2 V617F), WB; assay type: cell-based; settings: 24 hours
Procedure: (B) SEL120-34A inhibits IFN-dependent phosphorylation of STAT1 S727. HCT-116 cells stimulated with IFNg for 4 h were treated with increasing doses of SEL120-34A, Flavopiridol (F) or vehicle DMSO (C) to determine changes in the phosphorylation of STAT1 S727 and Y701, as measured by WB. (*) unspecific band. (C) SEL120-34A inhibits serine phosphorylation of STAT1 S727 and STAT5 S726, whereas Ruxolitinib inhibits tyrosine phosphorylation of STAT1 Y701 and STAT5 Y694 in JAK2 V617F cells. SET-2 cells were treated with Ruxolitinib, SEL120-34A or vehicle DMSO (C) for 24 hours and protein levels of pS727, pY701 STAT1 and pS726, pY694 STAT5 were measured by WB. […]
0,1% SDS; 20 mM β-glicerol phosphate; 5 mM NaF; cat. # sc835), α-STAT5-pS726 (1:1000; Abcam, cat. # 1 mM Na3VO4) supplemented with protease inhibitors ab128896), α-STAT5-pY694 (1:1000; Cell Signaling, (Santa Cruz Biotechnology). […] Protein concentration in lysates (1:20000; Sigma, cat. # G9545) was measured by the Bradford assay and adjusted to achieve the same final concentration in each well (20-30 mRNA extraction from xenograft tissue μg protein/well). […] Prior to microarray analyses, the quality of the incubation with secondary donkey anti-rabbit antibodies RNA samples was determined using an Agilent 2100 conjugated to HRP, used at 1:4000 (Cell Signaling, Bioanalyzer (Agilent Technologies, CA, USA). […]

SIG-M5 = experiment: Extended viability test (AlamarBlue); assay type: cell-based; settings: Homo sapiens, extended viability assay
CDK1/CycE1 = CDK1/CycE1 (Homo sapiens, UniProt P06493); experiment: CDK family single point inhibition assay; assay type: biochemical; settings: Km ATP
MOLM13 = experiment: Extended viability test (AlamarBlue); assay type: cell-based
CDK9/CycK = CDK9/CycK (Homo sapiens, UniProt P50750); experiment: CDK family single point inhibition assay; assay type: biochemical; settings: Km ATP
CDK8 = molecular target: T1, CDK8 (Homo sapiens, UniProt P49336); experiment: Kinase capture with ATP-desthiobiotin probes in KG-1 AML cell lysates; assay type: binding; settings: 1- 100 nM concentration range
T1 construct: endogenous in cells; host or cells: KG-1 AML cell lysate

MOLM16 = experiment: Extended viability test (AlamarBlue); assay type: cell-based; settings: extended viability assay
[1] = tested on: STAT1 S727 and STAT5 S726; experiment: Pharmacodynamics in Colo-205 CRC xenograft tissues (WB); assay type: in vivo, mice; settings: 60mg/kg oral BID 3 days, 16 hours after the last dose
Procedure: (§1) Water was used as a vehicle. Levels of phosphorylated STAT1 S727, Y701 and STAT5 S726 were measured by WB. Floating bars plots indicate relative inhibition of STAT1 S727, measured by densitometry of WB signals (left) and corresponding concentrations of SEL120-34A detected in plasma of treated animals, measured by LC-MS (right). Mean, min and max values are presented. (B) Heat map showing changes in expression levels of the top 30 differentially expressed genes (based on adj. p-values, Z-scores are shown) in Colo-205 tumors, after treatment with 30 mg/kg of SEL120-34A at 4h time point (C) Validation of microarray data by qRT-PCR for selected IFN-regulated genes. Animals were administered with 5, 15, 30 and 60 mg/kg BID for 3 days and Colo-205 tumor samples were collected at 4 and 16 hours after the last compound dose. Total RNA was extracted and subjected to qRT-PCR measurements. mRNA expressions of measured transcripts were normalized to RPLP0 expression (n=3;±SD). Differences between mean cDNA levels for control and a given SEL120-34A dose at the indicated time point were assessed by t-tests. A p-value of ≤ 0.05 (*) was considered significant. (D) GSEA running plots for expression changes in Colo-205 xenografts after SEL120-34A treatment. […]

[2] = Plasma concentration in Colo-205 xenografted animals (LC-MS); assay type: in vivo, mice; settings: mouse, 60mg/kg oral BID 3 days, 16 hour time point
Procedure: as §1

CDK7/CycH/MAT1 = CDK7/CycH/MAT1 (Homo sapiens, UniProt P50613); experiment: CDK family single point inhibition assay; assay type: biochemical; settings: Km ATP
[3] = tested on: STAT5 S726 and STAT1 S727; experiment: STAT phosphorylation in KG-1 AML cells (WB); assay type: cell-based; settings: KG-1 cells, 1 μM
Procedure: Figure 6 Efficacy of SEL120-34A in responder AML cells lines coincides with the inhibition of STAT5 S726 (A) Growth curves of responder KG-1 cell line and non-responder MOLM-13 cell line treated with increasing concentrations of SEL120-34A (B) Time-dependent effects of 1 μM SEL120-34A in KG-1 cells. Levels of STAT5 and phosphorylated STAT5 S726 and Y694 were measured by WB. (C) STAT5 S726 inhibition after the wash-out, following 1 h treatment with 1 μM SEL120-34A. (D) Effects of prolonged SEL120-34A exposures in KG-1 cells. KG-1 were treated with SEL120-34A for 1 h, 3 days and 6 days and levels of total STAT5, STAT5 S726, STAT1 S727, Caspase 3 and Cleaved Caspase 3 were measured by WB.
Mean GI50 (day 10) is shown and plotted on the graph (n=3). (D) Levels of phosphorylated STAT5 S726 and […] in AML cells from the panel C were measured by WB. Densitometry for STAT5 S726 and […] signals is shown and plotted on the graph. Cell lines from the panel D were divided into two classes based on the sensitivity to CDK8 inhibitors treatment (responders GI50<1 μM and non-responder GI50>1 μM), mean levels of STAT5 S726 (E) or STAT1 S727 (F) in selected cell lines measured by densitometry were presented on scatter plots. Differences between responder and non-responder were assessed by t-tests (p value is shown). […]

GDM-1 = experiment: Extended viability test (AlamarBlue); assay type: cell-based; settings: Homo sapiens, extended viability assay
Kasumi-1 = experiment: Extended viability test (AlamarBlue); assay type: cell-based; settings: Homo sapiens, extended viability assay
Oci-AML3 = experiment: Extended viability test (AlamarBlue); assay type: cell-based; settings: Homo sapiens, OCI-AML-3; extended viability assay
PL-21 = experiment: Extended viability test (AlamarBlue); assay type: cell-based; settings: extended viability assay
MV4-11 = experiment: Extended viability test (AlamarBlue); assay type: cell-based; settings: Homo sapiens, extended viability assay
EOL-1 = experiment: Extended viability test (AlamarBlue); assay type: cell-based; settings: Homo sapiens, EOL1; extended viability assay
KG-1 = experiment: Extended viability test (AlamarBlue); assay type: cell-based

Chain of UniProt P50613 (P50613 whole entry): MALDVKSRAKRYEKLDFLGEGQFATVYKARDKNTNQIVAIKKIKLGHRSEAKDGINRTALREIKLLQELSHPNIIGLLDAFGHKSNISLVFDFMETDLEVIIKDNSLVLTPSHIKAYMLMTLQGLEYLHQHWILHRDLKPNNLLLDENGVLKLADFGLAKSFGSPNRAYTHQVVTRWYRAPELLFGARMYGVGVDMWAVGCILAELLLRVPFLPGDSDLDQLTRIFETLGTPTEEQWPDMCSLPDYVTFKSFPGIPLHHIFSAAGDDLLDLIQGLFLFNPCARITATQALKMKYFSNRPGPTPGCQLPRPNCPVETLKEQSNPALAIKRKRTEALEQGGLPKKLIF
Chain of UniProt P50613 (P51946 whole entry partner): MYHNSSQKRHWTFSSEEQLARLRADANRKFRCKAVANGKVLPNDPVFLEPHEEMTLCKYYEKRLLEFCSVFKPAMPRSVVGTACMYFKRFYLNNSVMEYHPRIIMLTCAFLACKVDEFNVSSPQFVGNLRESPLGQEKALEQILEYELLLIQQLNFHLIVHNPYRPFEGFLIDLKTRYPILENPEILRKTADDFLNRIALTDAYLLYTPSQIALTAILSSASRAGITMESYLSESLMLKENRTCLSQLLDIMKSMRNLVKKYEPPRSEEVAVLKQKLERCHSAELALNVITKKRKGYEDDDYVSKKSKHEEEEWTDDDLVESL
Chain of UniProt P50613 (P51948 whole entry partner): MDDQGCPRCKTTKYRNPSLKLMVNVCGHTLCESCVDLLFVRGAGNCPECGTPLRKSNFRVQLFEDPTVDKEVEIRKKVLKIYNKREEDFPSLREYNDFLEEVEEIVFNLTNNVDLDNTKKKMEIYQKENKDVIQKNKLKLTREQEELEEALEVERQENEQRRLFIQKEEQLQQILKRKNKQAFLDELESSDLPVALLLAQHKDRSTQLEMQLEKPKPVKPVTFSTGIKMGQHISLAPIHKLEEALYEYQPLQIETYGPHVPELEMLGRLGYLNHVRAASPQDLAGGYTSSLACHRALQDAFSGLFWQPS
Chain of UniProt P06493 (P06493 whole entry): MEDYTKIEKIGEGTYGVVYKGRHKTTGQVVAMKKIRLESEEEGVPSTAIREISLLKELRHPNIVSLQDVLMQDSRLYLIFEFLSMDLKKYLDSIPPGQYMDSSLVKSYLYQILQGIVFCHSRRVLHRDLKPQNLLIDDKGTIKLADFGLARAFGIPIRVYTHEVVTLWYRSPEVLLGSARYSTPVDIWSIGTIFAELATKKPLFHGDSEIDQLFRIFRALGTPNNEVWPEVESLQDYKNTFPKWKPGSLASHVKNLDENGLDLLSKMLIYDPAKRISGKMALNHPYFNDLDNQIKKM
Chain of UniProt P06493 (P24864 whole entry partner): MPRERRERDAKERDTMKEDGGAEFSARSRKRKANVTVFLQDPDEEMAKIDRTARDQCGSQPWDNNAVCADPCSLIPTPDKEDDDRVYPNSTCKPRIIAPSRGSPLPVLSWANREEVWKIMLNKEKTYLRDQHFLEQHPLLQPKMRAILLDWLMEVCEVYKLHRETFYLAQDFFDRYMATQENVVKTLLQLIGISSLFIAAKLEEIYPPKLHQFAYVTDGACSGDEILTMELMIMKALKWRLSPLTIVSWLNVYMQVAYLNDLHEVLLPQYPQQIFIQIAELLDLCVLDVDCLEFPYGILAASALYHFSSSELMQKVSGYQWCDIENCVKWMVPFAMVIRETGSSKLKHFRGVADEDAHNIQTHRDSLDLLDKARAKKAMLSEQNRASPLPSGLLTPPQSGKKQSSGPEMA
Chain of UniProt P11802 (P11802 whole entry): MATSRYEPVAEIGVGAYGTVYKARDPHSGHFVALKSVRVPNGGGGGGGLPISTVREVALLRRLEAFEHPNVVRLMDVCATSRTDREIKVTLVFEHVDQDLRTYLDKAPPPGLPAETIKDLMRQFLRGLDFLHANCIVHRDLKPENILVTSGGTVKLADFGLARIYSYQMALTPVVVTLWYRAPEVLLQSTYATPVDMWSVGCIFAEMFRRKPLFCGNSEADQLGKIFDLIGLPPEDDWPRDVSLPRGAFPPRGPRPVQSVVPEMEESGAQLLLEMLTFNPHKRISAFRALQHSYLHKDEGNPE
Chain of UniProt P11802 (P24385 whole entry partner): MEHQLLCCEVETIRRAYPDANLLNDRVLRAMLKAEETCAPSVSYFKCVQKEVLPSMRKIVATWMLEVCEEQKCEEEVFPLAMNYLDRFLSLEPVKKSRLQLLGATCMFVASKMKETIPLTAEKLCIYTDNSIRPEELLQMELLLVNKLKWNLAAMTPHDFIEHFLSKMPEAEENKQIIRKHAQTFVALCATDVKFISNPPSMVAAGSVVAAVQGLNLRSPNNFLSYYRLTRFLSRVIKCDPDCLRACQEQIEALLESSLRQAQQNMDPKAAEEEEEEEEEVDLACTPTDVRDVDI
Chain of UniProt P50750 (P50750 whole entry): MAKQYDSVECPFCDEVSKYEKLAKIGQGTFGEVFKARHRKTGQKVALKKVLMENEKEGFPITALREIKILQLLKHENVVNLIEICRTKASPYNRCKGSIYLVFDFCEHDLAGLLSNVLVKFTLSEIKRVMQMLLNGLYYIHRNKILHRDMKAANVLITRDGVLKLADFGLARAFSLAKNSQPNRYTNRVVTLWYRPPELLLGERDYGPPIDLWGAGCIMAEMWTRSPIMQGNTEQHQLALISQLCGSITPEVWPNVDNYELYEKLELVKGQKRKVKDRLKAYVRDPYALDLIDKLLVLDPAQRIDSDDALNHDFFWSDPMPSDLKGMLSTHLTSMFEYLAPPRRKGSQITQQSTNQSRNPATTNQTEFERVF
Chain of UniProt P50750 (O75909 whole entry partner): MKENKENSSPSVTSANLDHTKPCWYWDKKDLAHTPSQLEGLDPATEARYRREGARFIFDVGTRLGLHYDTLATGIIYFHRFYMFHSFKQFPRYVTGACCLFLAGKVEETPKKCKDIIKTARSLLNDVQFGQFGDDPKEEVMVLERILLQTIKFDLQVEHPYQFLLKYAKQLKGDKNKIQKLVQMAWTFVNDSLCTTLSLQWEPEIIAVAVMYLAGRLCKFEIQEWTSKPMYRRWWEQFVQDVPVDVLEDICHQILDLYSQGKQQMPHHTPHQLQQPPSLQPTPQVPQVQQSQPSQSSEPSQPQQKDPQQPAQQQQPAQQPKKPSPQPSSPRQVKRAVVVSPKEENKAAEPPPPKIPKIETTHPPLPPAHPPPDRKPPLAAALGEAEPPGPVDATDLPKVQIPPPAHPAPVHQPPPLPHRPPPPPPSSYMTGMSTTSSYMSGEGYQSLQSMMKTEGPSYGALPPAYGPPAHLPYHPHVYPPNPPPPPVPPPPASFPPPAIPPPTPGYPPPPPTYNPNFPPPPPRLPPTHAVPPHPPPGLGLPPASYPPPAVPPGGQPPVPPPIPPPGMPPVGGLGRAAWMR
T1 sequence (P49336 whole entry): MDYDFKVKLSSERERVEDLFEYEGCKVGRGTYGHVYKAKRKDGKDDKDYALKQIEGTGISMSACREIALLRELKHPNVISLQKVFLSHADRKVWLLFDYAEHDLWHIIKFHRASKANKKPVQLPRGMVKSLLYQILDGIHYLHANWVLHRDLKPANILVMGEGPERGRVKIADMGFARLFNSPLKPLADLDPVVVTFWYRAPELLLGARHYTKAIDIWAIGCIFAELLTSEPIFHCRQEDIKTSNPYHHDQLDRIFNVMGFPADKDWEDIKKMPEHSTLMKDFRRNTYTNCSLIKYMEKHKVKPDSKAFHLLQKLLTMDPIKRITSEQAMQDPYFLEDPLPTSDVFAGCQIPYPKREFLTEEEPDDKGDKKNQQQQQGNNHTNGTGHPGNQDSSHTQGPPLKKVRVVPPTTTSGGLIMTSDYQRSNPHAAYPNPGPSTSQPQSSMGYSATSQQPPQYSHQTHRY
T1 sequence (P24863 whole entry partner): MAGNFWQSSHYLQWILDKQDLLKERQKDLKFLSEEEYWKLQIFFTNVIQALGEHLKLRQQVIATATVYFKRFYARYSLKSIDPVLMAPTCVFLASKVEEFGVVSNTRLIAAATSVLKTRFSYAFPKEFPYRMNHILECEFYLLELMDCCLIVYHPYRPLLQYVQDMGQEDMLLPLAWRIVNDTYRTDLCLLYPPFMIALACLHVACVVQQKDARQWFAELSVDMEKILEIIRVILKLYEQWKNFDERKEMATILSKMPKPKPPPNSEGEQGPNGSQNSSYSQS

With `Cc1c(Br)c(Br)c2c3c1nc(N1CCNCC1)n3CCC2` [SEL120-34A] the remaining activity at 1 µM (CDK4/CycD1; mean, read-out: % remaining activity @1μM CDK4/CycD1 Mean) was 94%, the remaining activity at 1 µM (CDK4/CycD1; repeat 1, read-out: % remaining activity @1μM CDK4/CycD1 repeat 1) was 89% and the remaining activity at 1 µM (CDK4/CycD1; repeat 2, read-out: % remaining activity @1μM CDK4/CycD1 repeat 2) was 99%. For the same compound, the “STAT5 S726 phosphorylation” value (STAT5 S726 and Y694) was “exhibited activity”, the “STAT5 Y694 phosphorylation” value (STAT5 S726 and Y694) was “but not Y694” and the GI50 (SIG-M5) was 1100 nM. The remaining activity at 1 µM (CDK1/CycE1; mean, read-out: % remaining activity @1μM CDK1/CycE1 Mean) was 88%, the remaining activity at 1 µM (CDK1/CycE1; repeat 1, read-out: % remaining activity @1μM CDK1/CycE1 repeat 1) was 90% and the remaining activity at 1 µM (CDK1/CycE1; repeat 2, read-out: % remaining activity @1μM CDK1/CycE1 repeat 2) was 86%. The GI50 (MOLM13; Homo sapiens, MOLM-13, extended viability assay) was 2500 nM, the “sensitivity of MOLM13 AML cells to prolonged treatment” value (MOLM13; S726 negative cells, growth curves) was “resistant” and the remaining activity at 1 µM (CDK9/CycK; mean, read-out: % remaining activity @1μM CDK9/CycK Mean) was 41%. For the same compound, the remaining activity at 1 µM (CDK9/CycK; repeat 1, read-out: % remaining activity @1μM CDK9/CycK repeat 1) was 45%, the remaining activity at 1 µM (CDK9/CycK; repeat 2, read-out: % remaining activity @1μM CDK9/CycK repeat 2) was 38% and the “binding to CDK8 in KG-1 AML cell lysates, competition with ATP-analogue probes” value (CDK8) was “effectively bind to CDK8 in a dose-dependent manner”. The GI50 (MOLM16) was 340 nM, the “inhibition of STAT1 S727 and STAT5 S726 in Colo-205 xenograft tissues” value [1] was “Nearly complete inhibitions” and the concentration at 16 h [2] was greater than 700 ng/mL. The remaining activity at 1 µM (CDK7/CycH/MAT1; mean, read-out: % remaining activity @1μM CDK7/CycH/MAT1 Mean) was 83%, the remaining activity at 1 µM (CDK7/CycH/MAT1; repeat 1, read-out: % remaining activity @1μM CDK7/CycH/MAT1 repeat 1) was 86% and the remaining activity at 1 µM (CDK7/CycH/MAT1; repeat 2, read-out: % remaining activity @1μM CDK7/CycH/MAT1 repeat 2) was 79%. The “time to maximal inhibition of STAT5 S726” value [3] was 1 h, the GI50 (GDM-1) was 60 nM and the GI50 (Kasumi-1) was 1100 nM. The GI50 (Oci-AML3) was 400 nM, the GI50 (PL-21) was 1000 nM and the GI50 (MV4-11) was 250 nM. The GI50 (EOL-1) was 1100 nM, the GI50 (KG-1; Homo sapiens, KG-1, extended viability assay) was 160 nM and the “sensitivity of KG-1 AML cells to prolonged treatment” value (KG-1; STAT5 S726 positive cells, growth curves) was “sensitive”.

Reference: article PMC5464911, “SEL120-34A is a novel CDK8 inhibitor active in AML cells with high levels of serine phosphorylation of STAT1 and STAT5 transactivation domains” (Oncotarget, 2017)
